Some of the results follow. At the low end of the ranking the order means little.

The test deals with T1, GST-Rok (full length) (UniProt O34857).
T1 sequence: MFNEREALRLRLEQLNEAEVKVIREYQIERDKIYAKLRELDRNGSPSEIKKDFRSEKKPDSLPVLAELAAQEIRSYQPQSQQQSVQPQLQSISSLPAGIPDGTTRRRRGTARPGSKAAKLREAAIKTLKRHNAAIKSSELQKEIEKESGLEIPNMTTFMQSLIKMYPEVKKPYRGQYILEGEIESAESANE
Description: protein binding microarray.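 Further: rank score from −0.5 (least bound) to 0.5 (best bound).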 The note with it: Rok is a gene silencer of Bacillus subtilis; high values mean tight binding; most listed sequences are background and not binding sites; double strand, one strand shown.
Take AGCCCGCG: the binding signal was -0.231 E-score.
On to CCACGCGG, for which the binding signal is -0.256 E-score.
AGCGGCGC: the binding signal was -0.27 E-score.
For AAGTGCCA, the binding signal was -0.2 E-score.
Turning to CAGTGCAA, the binding signal was -0.0853 E-score.
In the case of AGTCCCAG it was -0.257 E-score.
For CCTGGCAA, the binding signal is -0.129 E-score.
Regarding ATGGCTCA, the binding signal is -0.169 E-score.
TGGCGTAA yielded a binding signal of 0.106 E-score.
The value for AGAGCTAA was 0.151 E-score; that for AGGACATC was -0.297 E-score; that for CTCCTTAC was -0.194 E-score.
For GGGGACAC, the binding signal was -0.289 E-score.
In the case of CCTGGGCA, the binding signal was -0.283 E-score.
In the case of ACCAGCGG it was -0.0305 E-score.
In turn, CGTAGGTA showed a binding signal of 0.347 E-score.
Take AAACTCGC: the binding signal is -0.0186 E-score.
On to GCTAGGAC, for which the binding signal was -0.24 E-score.
In the case of TAATCCCA, the binding signal was -0.105 E-score.
For AGACGAAT, the binding signal was -0.0134 E-score.
Turning to GCGTGTTA, the binding signal came to 0.0238 E-score.
On to GAGGCGCA, for which the binding signal is -0.123 E-score.
On to GCTCGTCA, for which the binding signal was -0.249 E-score.
ACCGGAAG: the binding signal was -0.165 E-score.
As to ACGTTACG, the binding signal was -0.104 E-score.
Turning to CCAGATGC, the binding signal is -0.107 E-score.
ATGTCCGC: the binding signal was -0.0274 E-score.
The value for AAGGGCAG was -0.266 E-score; that for CAGTTGAA was 0.0294 E-score.
Turning to AAATCATT, the binding signal was 0.0987 E-score.
Consider ATATCCTG, for which the binding signal is -0.00854 E-score.
Consider GGCCTGCA, for which the binding signal was -0.221 E-score.
For the sequence ACGAAGTG, the binding signal was -0.0315 E-score.
Take GCGCGTGA: the binding signal was -0.235 E-score.
For the sequence CAGATGGG, the binding signal is -0.0675 E-score.
In the case of ACCCCGAT it was -0.138 E-score; in that of TCATATCA, 0.132 E-score.
Consider ATGGGCTA, for which the binding signal came to 0.0395 E-score.
As for ACGGTGTC, the binding signal is -0.262 E-score.
The value for GTAAGGGA was -0.124 E-score.
The sequence CAGTACAC came in with a binding signal of 0.0785 E-score.
The value for AGTGCGAA was -0.135 E-score.
In the case of CGGCTCAG it was -0.28 E-score; in that of GAATAACA, 0.0838 E-score; in that of CCGGTGGC, -0.236 E-score.
Regarding AACAACCG, the binding signal was -0.0593 E-score.
Consider ACGAACCG, for which the binding signal is -0.12 E-score.
In turn, AAGCAACT had a binding signal of 0.139 E-score.
The value for TATTTTAA was 0.322 E-score.
As to AAAGGGGT, the binding signal is -0.257 E-score.
The value for ACTGAGAA was 0.0543 E-score; that for GGCCTTCA was -0.28 E-score; that for GATCTCGA was 0.0395 E-score.
ATCGGCTA returned a binding signal of 0.0346 E-score.
For ACCAAAGC, the binding signal was -0.15 E-score.
As for ATACGACA, the binding signal worked out at 0.024 E-score.
In the case of CCTGTTTA, the binding signal is -0.13 E-score.
In the case of ACAATCGA it was -0.0237 E-score; in that of CTTCATAA, 0.154 E-score; in that of CCAGCAGA, -0.188 E-score.
The value for TAAGTGTA was 0.246 E-score; that for CACAGAGA was -0.0186 E-score.
In the case of CAATATTA it was 0.254 E-score; in that of AATACTGG, 0.169 E-score; in that of ATCATCGC, 0.0362 E-score.
Consider AACGAGTC, for which the binding signal is -0.0528 E-score.
On to GATAGGCC, for which the binding signal is -0.142 E-score.
In turn, ACCGTGAT returned a binding signal of 0.145 E-score.
Take CCTGGCGC: the binding signal was -0.237 E-score.
Consider GATCTCCC, for which the binding signal is -0.295 E-score.
In the case of AGCAATAA it was 0.0749 E-score; in that of ACTCAATC, 0.105 E-score.
As to ATGTTTGA, the binding signal was found to be 0.124 E-score.
For the sequence GGTAAACC, the binding signal was 0.00688 E-score.
AGGCGCAA: the binding signal is -0.126 E-score.
As for AAGCGAGT, the binding signal was -0.0204 E-score.
On to CGAGACGA, for which the binding signal was -0.0245 E-score.
In the case of ATCACTAC, the binding signal was found to be 0.0844 E-score.
As for AGCAGAAA, the binding signal came out at 0.0612 E-score.
As for CTGCAACA, the binding signal is -0.0642 E-score.
In the case of GAATCTCC it was 0.00693 E-score; in that of CAGGCGGG, -0.394 E-score; in that of AGTACAAC, 0.0971 E-score.
For the sequence ACGTGAGG, the binding signal was -0.0871 E-score.
In the case of TTAGGGAA it was -0.126 E-score; in that of AGTGTTCG, 0.00932 E-score; in that of CTTCCTCC, -0.344 E-score.
CCAGTACC: the binding signal was -0.0547 E-score.
In the case of ACGCGTGC it was -0.0951 E-score; in that of AGCTCGCG, -0.123 E-score; in that of CCGTAAAA, 0.0965 E-score.
GCCGCGCC: the binding signal is -0.283 E-score.
Sequence ACCATTAA came in with a binding signal of 0.0746 E-score.
In the case of CTTATGTC, the binding signal is -0.104 E-score.
Take AAGGGAGT: the binding signal was -0.131 E-score.
With GGCACTCA, the binding signal was -0.0412 E-score.
Take ATGAGACC: the binding signal was -0.0922 E-score.
In the case of AAAGCAAT, the binding signal worked out at 0.137 E-score.
As to GCACTGGC, the binding signal was -0.154 E-score.
In the case of AATCGATC it was 0.111 E-score; in that of ATTGGAAG, 0.0354 E-score.
Consider ACCACTAT, for which the binding signal worked out at 0.112 E-score.
In the case of GTATCAGA it was 0.102 E-score.
The value for GATACCAA was 0.13 E-score; that for AACAGTAT was 0.262 E-score.
On to ACAGCTGC, for which the binding signal is -0.187 E-score.
The sequence GGATATAC gave a binding signal of 0.317 E-score.
With CGGTATGC, the binding signal was -0.164 E-score.
In the case of AGTGTGTA, the binding signal stood at 0.126 E-score.
As for AATTACGG, the binding signal came out at 0.212 E-score.

These data come from article PMC6212790.
